In PubChem BioAssay (NCI):
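Grown in 96-well plates, cells were treated for 48 hours with each compound at five concentrations. Insufficient inhibition: endpoint recorded as highest concentration tested. GI50: concentration for 50% inhibition of growth. TGI is the concentration that stops growth completely.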

test system: NCI-H322M lung; assay: NCI-60 cell line screen, 48 h

Row | SMILES | GI50 [µM] | TGI [µM]
1 | Cc1ccc(/C=C(\C#N)n2nnc3c(F)cccc32)cc1 | 1.28 | 11.1
2 | CN(C)CCCNC(=O)c1cc(NC(=O)c2cc(NC(=O)c3ccc(/C=C/c4ccccc4)cc3)cn2C)cn1C | 23.2 | > 31.3
3 | COc1ccc([C@H]2C(C(=O)c3ccc(Cl)cc3)C3(N[C@@H]2c2ccccc2)C(=O)Nc2ccc(Cl)cc23)cc1 (stereo partly drawn) | 7.33 | 30.4
4 | O=C(NN1C(=O)/C(=C/C=C/c2ccc([N+](=O)[O-])o2)SC1=S)c1ccc([N+](=O)[O-])cc1 | 1.79 | 3.81
